# Measured values reported in PubChem BioAssay AID504339 (National Center for Advancing Translational Sciences (NCATS), 2011).
# Screen size: about 390,000 compounds; about 17,000 (4.4%) were called active. Inconclusive means that the source gave no clear call. Such entries were picked first, then a sample of the others. The call rests on the fitted dose curve; in most records, active means well fitted inhibition curve with a large enough effect; inconclusive means small, poorly fitted or top-dose-only effect; inactive means no such curve, though single readings can be large or run the other way. Potencies beside an inconclusive call are fits to weak or partial responses and may not hold up.
# Molecular target: Lysine-specific demethylase 4A (Homo sapiens) (UniProt O75164)
# Assay: qHTS Assay for Inhibitors of JMJD2A-Tudor Domain; further: nearly all actives have a fitted effect of over 50% in size
# Conditions: AlphaScreen JMJD2A-Tudor / H3K4me3 peptide binding; series mostly up to 114 µM
# Potency means the concentration at half of the fitted maximal effect; tags describe the fitted curve by direction and shape.
# Sequence of UniProt O75164 (O75164 whole entry, looked up, the tested form may be a part): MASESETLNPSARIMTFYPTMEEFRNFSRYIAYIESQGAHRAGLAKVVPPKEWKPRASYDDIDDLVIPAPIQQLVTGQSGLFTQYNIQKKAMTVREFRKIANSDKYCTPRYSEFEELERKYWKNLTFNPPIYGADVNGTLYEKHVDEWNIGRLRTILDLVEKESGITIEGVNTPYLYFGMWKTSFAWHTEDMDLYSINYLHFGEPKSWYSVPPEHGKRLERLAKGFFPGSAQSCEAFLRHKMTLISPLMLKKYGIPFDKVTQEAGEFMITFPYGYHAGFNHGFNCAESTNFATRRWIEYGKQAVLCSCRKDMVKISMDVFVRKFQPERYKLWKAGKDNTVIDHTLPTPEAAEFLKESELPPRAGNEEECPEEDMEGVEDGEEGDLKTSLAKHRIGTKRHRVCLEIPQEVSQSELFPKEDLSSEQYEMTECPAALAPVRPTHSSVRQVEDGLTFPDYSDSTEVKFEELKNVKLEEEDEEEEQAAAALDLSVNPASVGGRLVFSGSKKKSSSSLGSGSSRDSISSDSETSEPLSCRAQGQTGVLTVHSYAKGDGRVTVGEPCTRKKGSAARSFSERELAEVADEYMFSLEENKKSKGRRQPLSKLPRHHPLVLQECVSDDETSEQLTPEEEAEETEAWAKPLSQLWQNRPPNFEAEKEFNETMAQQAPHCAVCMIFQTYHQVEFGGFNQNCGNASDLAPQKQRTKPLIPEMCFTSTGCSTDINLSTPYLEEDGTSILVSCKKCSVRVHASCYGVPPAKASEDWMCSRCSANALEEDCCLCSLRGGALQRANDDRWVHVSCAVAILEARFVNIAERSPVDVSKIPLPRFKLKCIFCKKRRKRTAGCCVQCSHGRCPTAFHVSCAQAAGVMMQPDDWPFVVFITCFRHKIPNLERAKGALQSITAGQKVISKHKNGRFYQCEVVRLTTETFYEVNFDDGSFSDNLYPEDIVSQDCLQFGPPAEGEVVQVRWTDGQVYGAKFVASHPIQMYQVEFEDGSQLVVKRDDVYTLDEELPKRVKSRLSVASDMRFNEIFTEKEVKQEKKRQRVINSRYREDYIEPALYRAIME
row,SMILES,Potency
1,C/C(=N\Nc1ccc(S(=O)(=O)Nc2ccccc2)cc1[N+](=O)[O-])c1ccc(N2CCOCC2)cc1,"inconclusive: 3.55 µM [inhibitor, full curve]"
2,O=C(/C=C\NCC(=O)c1ccccc1)c1ccccc1,"inconclusive: 100 µM [inhibitor, single point]"
3,COc1ccc(OC)c(NS(=O)(=O)c2ccc(NC(C)=O)cc2)c1,inactive
4,Cc1ccc(NC(=O)CCC(=O)NNC(=O)/C=C/C(=O)O)c(C)c1,"inconclusive: 35.5 µM [inhibitor, single point]"
5,COc1ccc(N2C(=O)c3ccc(C(=O)OC(C)C)cc3C2=O)cc1,"inconclusive: 3.55 µM [inhibitor, single point]"
6,CC1(C)c2[nH]c3ccccc3c2C[C@@H]2C(=O)N(Cc3ccco3)C(=O)N21,inactive
7,COc1ccc(CN(C)C(C)C(=O)Nc2ccc([N+](=O)[O-])cc2Cl)cc1OC (stereo unspecified),"inconclusive: 44.7 µM [inhibitor, partial curve]"
8,COc1cc2nc(C3CCC3)nc(N3CCN(c4ccccn4)CC3)c2cc1OC,"inconclusive: 56.2 µM [inhibitor, partial curve]"
9,CC(CN1CCC(O)CC1)c1ccccc1 (stereo unspecified),active: 2.82 µM
10,COc1ccc(S(=O)(=O)N2CCOC23CCN(S(=O)(=O)c2ccc(F)cc2)CC3)cc1,inactive
11,O=S(=O)(Nc1cccc2cccnc12)c1ccccc1O,active: 31.6 µM
12,COc1ccc(Nc2cccccc2=O)cc1,"inconclusive: 79.4 µM [inhibitor, partial curve]"
13,O=C(OCc1cc(=O)n2ccsc2n1)c1ccccc1NCCO,"inconclusive: 44.7 µM [inhibitor, partial curve]"
14,O=C(Nc1ccc(S(=O)(=O)Nc2ncccn2)cc1)c1ccc2ncsc2c1,active: 35.5 µM
15,CCOc1ccc(CNCc2c(C(=O)O)n(Cc3ccc(C)cc3)c3cc(C)ccc23)cc1,"inconclusive: 17.8 µM [inhibitor, full curve, poor fit]"
16,COc1ccc(C2C(C(=O)O)CC(=O)N2c2ccc(OC)cc2)cc1 (stereo unspecified),"inconclusive: 89.1 µM [inhibitor, single point]"
17,CNc1ccc(C(=O)Oc2cc(O/N=[N+](\[O-])N(C)C)c([N+](=O)[O-])cc2[N+](=O)[O-])cc1,"inconclusive: 56.2 µM [inhibitor, partial curve]"
18,C=CCNCCCOc1ccc(Cl)cc1C(C)(C)C,active: 4.47 µM
19,Cc1cccc(-n2ccc(=O)c(C(=O)Nc3ccc(S(=O)(=O)Nc4nccs4)cc3)n2)c1,"inconclusive: 44.7 µM [inhibitor, partial curve]"
20,Cc1cccc(C(=O)N2CCc3cc(CNS(=O)(=O)c4ccc(Cl)s4)ccc32)c1,inactive
21,COc1cccc(C(=O)NCCS(=O)(=O)N2CCC(C)CC2)c1,inactive
22,CCCc1nnc2c(N(C)S(=O)(=O)c3ccccc3)nc3ccccc3n12,inactive
23,O=c1nc(N/N=C/C=C/c2ccccc2)cn[nH]1,"inconclusive: 0.708 µM [inhibitor, full curve, poor fit]"

row,SMILES,Potency
1,CCCC1CCc2c(sc(N)c2C(N)=O)C1 (stereo unspecified),"inconclusive: 31.6 µM [inhibitor, full curve]"
2,O=C(CCN1CCc2ccccc21)c1ccc2c(c1)OCCO2,"inconclusive: 50.1 µM [inhibitor, partial curve]"
3,Cc1ccc(CN(Cc2ccc(C)o2)C(=S)NCC(=O)O)cc1,inactive
4,O=C1Nc2ccccc2/C1=N/N=C/c1cccc(O)c1,"inconclusive: 50.1 µM [inhibitor, partial curve]"
5,COc1cc(C(C(=O)NCC2CCCO2)N(C(=O)Cn2nnc3ccccc32)c2ccc(C(C)=O)cc2)ccc1O (stereo unspecified),inactive
6,COC(=O)c1ccc(-c2ccc(/C=N/N3C(=O)C4C5C=CC(C6CC56)C4C3=O)o2)cc1 (stereo unspecified),"inconclusive: 31.6 µM [inhibitor, full curve]"
7,CC(=O)c1cccc(OCC(O)CNCC2CCCCC2)c1 (stereo unspecified),active: 8.91 µM
8,COc1cccc(OCC(O)CN2CCC(CN3C(=O)c4cccc5cccc(c45)C3=O)CC2)c1 (stereo unspecified),"inconclusive: 39.8 µM [inhibitor, partial curve]"
9,Cc1ccccc1OCC(=O)OCC(=O)c1cc(C)n(C2CC2)c1C,"inconclusive: 56.2 µM [inhibitor, partial curve]"
10,O=S(=O)(Nc1ccc(Cl)cn1)c1ccc(F)cc1,inactive
11,O=C(c1cc2c(s1)-c1ccccc1OC2)N1CCN(c2ccccc2)CC1,inactive
12,O=C(CN1C(=O)NC2(CCCCCC2)C1=O)NCCc1ccccc1,inactive
13,Cc1ccn2c(-c3n[nH]c(=S)n3C)c(C)nc2c1,active: 8.91 µM
14,O=C1/C(=C/c2ccccc2Cl)SC(=S)N1CCC(=O)N1CCCCC1CCO (stereo unspecified),"inconclusive: 63.1 µM [inhibitor, partial curve]"
15,Cc1c(/C=N/Nc2ccc(C(=O)O)cc2)c2ccccc2n1C,"inconclusive: 56.2 µM [inhibitor, partial curve]"
16,Cc1ccc(S(=O)(=O)N2CCN(C(=O)C(Cc3ccccc3)NC(=O)c3ccccc3)CC2)cc1 (stereo unspecified),"inconclusive: 89.1 µM [inhibitor, partial curve]"
17,COc1cc(C(CCN2CCCCC2)c2c(OC)cc(OC)c3c(-c4ccccc4)cc(=O)oc23)cc(OC)c1OC (stereo unspecified),"inconclusive: 50.1 µM [inhibitor, partial curve]"
18,CCCOc1ccc(C(=O)N(Cc2ccc(N(C)C)cc2)CC2CCCO2)cc1 (stereo unspecified),active: 39.8 µM
19,CCN1CCn2c3c(c4cccc(C)c42)CCCC31 (stereo unspecified),"inconclusive: 56.2 µM [inhibitor, partial curve]"
20,Cc1ccc(NCc2nnc(SCC(=O)N3CCCc4ccccc43)o2)c(C)c1,"inconclusive: 50.1 µM [inhibitor, partial curve]"
21,COc1ccccc1CNC(=O)c1ccc2c(=O)n3c(nc2c1)CCCCC3,inactive
22,O=C(N/N=C/c1c(O)ccc2ccccc12)c1cccnc1,active: 50.1 µM
23,COc1ccc(NC(=O)CCC(=O)N2CCN(S(=O)(=O)c3ccc(C)cc3)CC2)c(OC)c1,"inconclusive: 63.1 µM [inhibitor, partial curve, poor fit]"
